Our source for the cytotoxicity call and growth inhibition call values is the antibiotic and cytotoxicity screens of Wong et al. (2023).

This is one part of the list.

Assay [1] deals with HSkMC (human skeletal muscle cells). Briefly: cytotoxicity call (relative viability < 0.9). The conditions noted are these: 10 µM.
For assay [2], the system named is HepG2. Nature of the assay: cytotoxicity call (relative viability < 0.9). The conditions noted are these: 10 µM.
Assay [3] relates to S. aureus RN4220. Briefly: growth inhibition call (relative growth <= 0.2). To be noted: 50 µM.

`CN(CC(=O)O)[C@H]1CCS(=O)(=O)C1`: the cytotoxicity call in assay [1] and in assay [2] was “inactive” each time. Moreover, the growth inhibition call in assay [3] was “inactive”.

As for `CC(C)NC(=O)Nc1ccc2c(c1)C(=O)N([C@@H](C)CO)C[C@@H](C)[C@H](CN(C)C(=O)Nc1ccccc1)OCCCC[C@@H](C)O2`, the cytotoxicity call in assay [1] and in assay [2] was “inactive” in each case. Also, in assay [3], the growth inhibition call was “inactive”.

With `Cc1cc(C(=O)Nc2cccc3c2O[C@@H](CN(C)C(=O)Nc2ccc4c(c2)OCO4)[C@@H](C)CN([C@H](C)CO)C3=O)n(C)n1`, the cytotoxicity call in assay [1] and in assay [2] was “inactive” each time. In addition, in assay [3], the growth inhibition call was “inactive”.

With `Cc1noc(C)c1NC(=O)Nc1ccc2c(c1)C(=O)N([C@H](C)CO)C[C@H](C)[C@@H](CN(C)C(=O)Nc1ccc3c(c1)OCO3)OCCCC[C@H](C)O2`, the cytotoxicity call in assay [1] and in assay [2] was “inactive” throughout. Also, in assay [3], the growth inhibition call was “inactive”.

As for `COc1ccc(S(=O)(=O)Nc2cccc3c2O[C@@H](CN(C)S(=O)(=O)c2ccccc2)[C@@H](C)CN([C@H](C)CO)C3=O)cc1`, the cytotoxicity call in assay [1] and in assay [2] was “inactive” each time. Also, the growth inhibition call in assay [3] is “inactive”.

On to `C[C@H](O)C#Cc1cnc2c(c1)C(=O)N([C@H](C)CO)C[C@H](C)[C@H](CN(C)C(=O)CN1CCOCC1)O2`, for which the cytotoxicity call in assay [1] and in assay [2] was “inactive” each time. Moreover, the growth inhibition call in assay [3] is “inactive”.

Take `C[C@H](CO)N1C[C@H](C)[C@@H](CN(C)Cc2ccc(C(=O)O)cc2)Oc2ccc(NC(=O)CCN3CCOCC3)cc2C1=O`: the cytotoxicity call in assay [1] and in assay [2] was “inactive” each time. In addition, the growth inhibition call in assay [3] is “inactive”.

Consider `Cc1cccc(/C=N/Nc2cc(N3CCOCC3)n3nc(-c4ccncc4)cc3n2)c1`, for which the cytotoxicity call in assay [1] and in assay [2] was “inactive” in each case. Besides, the growth inhibition call in assay [3] was “inactive”.

On to `CC(C)NC(=O)Nc1cccc2c1O[C@@H](CN(C)S(=O)(=O)c1ccc(F)cc1)[C@H](C)CN([C@@H](C)CO)C2=O`, for which the cytotoxicity call in assay [1] and in assay [2] was “inactive” each time. In addition, the growth inhibition call in assay [3] is “inactive”.

As for `C[C@@H]1CCCCO[C@@H](CN(C)Cc2ccc(C(F)(F)F)cc2)[C@H](C)CN([C@@H](C)CO)C(=O)c2cc(NC(=O)Nc3ccccc3)ccc2O1`, the cytotoxicity call in assay [1] and in assay [2] was “inactive” each time. Moreover, in assay [3], the growth inhibition call was “inactive”.

Regarding `C[C@@H]1CN([C@H](C)CO)C(=O)c2cc(NC(=O)Nc3cccc4ccccc34)ccc2O[C@@H](C)CCCCO[C@H]1CN(C)C(=O)C1CCCCC1`, the cytotoxicity call in assay [1] and in assay [2] was “inactive” throughout. Further, the growth inhibition call in assay [3] is “inactive”.

With `Cc1ccc(S(=O)(=O)N(C)C[C@@H]2Oc3ccc(NC(=O)c4ccncc4)cc3C(=O)N([C@H](C)CO)C[C@@H]2C)cc1`, the cytotoxicity call in assay [1] and in assay [2] was “inactive” throughout. Further, the growth inhibition call in assay [3] was “inactive”.

With `COc1ccc(NC(=O)N(C)C[C@H]2OCCCC[C@@H](C)Oc3ccc(NC(=O)C4CCCCC4)cc3C(=O)N([C@H](C)CO)C[C@@H]2C)cc1`, the cytotoxicity call in assay [1] and in assay [2] was “inactive” throughout. Also, the growth inhibition call in assay [3] was “inactive”.

Consider `C[C@@H]1CCCCO[C@@H](CN(C)Cc2ccc(Cl)c(Cl)c2)[C@H](C)CN([C@H](C)CO)C(=O)c2cc(N(C)C)ccc2O1`, for which the cytotoxicity call in assay [1] is “inactive”. Also, in assay [2], the cytotoxicity call is “active”. In assay [3], the growth inhibition call is “inactive”.

For `COc1ccc(CN(C)C[C@H]2Oc3ccc(NC(=O)CCCCCC(=O)Nc4ccccc4N)cc3CC(=O)N([C@@H](C)CO)C[C@H]2C)cc1`, the cytotoxicity call in assay [1] was “inactive”. In addition, in assay [2], the cytotoxicity call is “active”. Besides, the growth inhibition call in assay [3] was “inactive”.

`COc1ccc(S(=O)(=O)N(C)C[C@@H]2OCCCC[C@H](C)Oc3ccc(NS(=O)(=O)c4ccc(Cl)cc4)cc3C(=O)N([C@H](C)CO)C[C@@H]2C)cc1`: the cytotoxicity call in assay [1] is “inactive”. Moreover, in assay [2], the cytotoxicity call was “active”. In addition, the growth inhibition call in assay [3] was “inactive”.

Consider `O=C(C[C@@H]1CC[C@@H]2[C@H](COC[C@@H](O)CN2S(=O)(=O)c2ccc(Cl)cc2)O1)NCc1ccncn1`, for which the cytotoxicity call in assay [1] and in assay [2] was “inactive” in each case. The growth inhibition call in assay [3] is “inactive”.

For `CCCNC(=O)N(C)C[C@@H]1Oc2cc(-c3ccccc3F)ccc2S(=O)(=O)N([C@H](C)CO)C[C@@H]1C`, the cytotoxicity call in assay [1] and in assay [2] was “inactive” throughout. Also, in assay [3], the growth inhibition call was “inactive”.

Regarding `C[C@@H]1CN([C@@H](C)CO)C(=O)c2cc(NC(=O)NC3CCCCC3)ccc2O[C@@H]1CN(C)C(=O)Nc1ccc(C(F)(F)F)cc1`, the cytotoxicity call in assay [1] and in assay [2] was “inactive” throughout. For the same compound, the growth inhibition call in assay [3] was “inactive”.

Take `Cc1ccc(S(=O)(=O)N2C[C@@H](O)COC[C@@H]3O[C@@H](CC(=O)NCCN4CCCCC4)CC[C@H]32)cc1`: the cytotoxicity call in assay [1] and in assay [2] was “inactive” each time. The growth inhibition call in assay [3] is “inactive”.

Turning to `COCC(=O)N1C[C@H](C)[C@H](OC)CN(C)C(=O)c2ccc(NC(=O)c3ccc(F)cc3)cc2OC[C@@H]1C`, the cytotoxicity call in assay [1] and in assay [2] was “inactive” in each case. Also, in assay [3], the growth inhibition call is “inactive”.

For `CC(C)NC(=O)N(C)C[C@@H]1OCCCC[C@@H](C)Oc2ccc(NC(=O)C3CCCCC3)cc2C(=O)N([C@@H](C)CO)C[C@H]1C`, the cytotoxicity call in assay [1] and in assay [2] was “inactive” throughout. In addition, in assay [3], the growth inhibition call is “inactive”.

On to `Cn1c(=O)[nH]c(=O)c2c(=O)cc[nH]c21`, for which the cytotoxicity call in assay [1] and in assay [2] was “inactive” throughout. For the same compound, the growth inhibition call in assay [3] is “inactive”.

For the compound `C[C@H]1CN([C@@H](C)CO)C(=O)c2cccc(NS(=O)(=O)c3ccc(F)cc3)c2O[C@H]1CN(C)S(=O)(=O)c1ccccc1`, the cytotoxicity call in assay [1] and in assay [2] was “inactive” throughout. Further, the growth inhibition call in assay [3] is “inactive”.

Take `C[C@@H]1CCCCO[C@@H](CN(C)C(=O)Nc2ccc(C(F)(F)F)cc2)[C@H](C)CN([C@H](C)CO)C(=O)c2cc(NC(=O)Nc3ccccc3)ccc2O1`: the cytotoxicity call in assay [1] and in assay [2] was “inactive” throughout. For the same compound, the growth inhibition call in assay [3] is “inactive”.

In the case of `COc1ccc(CN(C)C[C@@H]2OCCCC[C@H](C)Oc3ccc(NS(=O)(=O)c4ccc(C)cc4)cc3C(=O)N([C@H](C)CO)C[C@@H]2C)cc1`, the cytotoxicity call in assay [1] and in assay [2] was “inactive” in each case. Besides, in assay [3], the growth inhibition call is “inactive”.

For `COc1ccc(NC(=O)Nc2ccc3c(c2)C(=O)N([C@@H](C)CO)C[C@@H](C)[C@@H](CN(C)C(=O)Nc2cccc4ccccc24)OCCCC[C@@H](C)O3)cc1`, the cytotoxicity call in assay [1] and in assay [2] was “inactive” in each case. Further, in assay [3], the growth inhibition call was “inactive”.
